Source: the supplement of paper PMC3334620
In all, about 33,000 sequences were measured (“E-score (-0.5 to 0.5)”: median about -0.016, highest 2% from about 0.31 on). Some of the results follow.

target: Cst6 (UniProt P40535); test: PBM E-score (8-mer binding enrichment) (E-score (-0.5 to 0.5)); higher = stronger / more preferred TF binding; most listed sequences are background and not binding sites; conditions: protein concentration: 200 nM; construct: GST-DNA-binding domain
Procedure: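 Universal 'all 10-mer' protein binding microarrays (Agilent AMADID 015681) probed with GST-tagged S. cerevisiae TFs (full-length or DBD) made by in vitro transcription/translation (PURExpress), about 100-200 nM. Bound TF was detected with fluorescent anti-GST. Each ungapped 8-mer (which stands for itself and its reverse complement) is scored by the PBM enrichment score (E-score), a modified Wilcoxon-Mann-Whitney statistic from -0.5 to +0.5, computed with the Universal PBM Analysis Suite. Scale: above 0.35 generally sequence-specific binding.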

Row | Sequence | PBM E-score
1 | TGCCTGAA | -0.0922
2 | AATCTCCG | -0.00291
3 | AGGAATAG | 0.0371
4 | CTCGGCCC | -0.362
5 | ACTCACAG | 0.0658
6 | CTCCGATC | -0.293
7 | ATAAACCA | 0.0829
8 | ATCGCCTC | 0.148
9 | ACTGCCGG | -0.192
10 | AAAGTATC | 0.155
11 | GGGATGAA | -0.25
12 | AAAACTTC | 0.151
13 | AGTGCTTC | -0.195
14 | GAAGGTGA | 0.0622
15 | ACTACTGA | -0.098
16 | AGCATTAC | 0.079
17 | AGGGCACA | 0.151
18 | GATCCTCA | 0.00029
19 | AGCATGAT | 0.0554
20 | GGGATCCC | -0.219
21 | ATGCCAGC | -0.103
22 | CAGTCTCA | 0.0411
23 | AGTAACAT | 0.228
24 | ATGGACGC | 0.0988
25 | AGACGTAG | -0.133

Row | Sequence | PBM E-score
26 | AAGGCCGA | -0.142
27 | ACCTACGC | -0.0589
28 | AGCTGACC | -0.126
29 | CGCGAACG | -0.125
30 | GAATAGGC | 0.0172
31 | CGGCCTCC | -0.151
32 | AAACGATC | 0.0158
33 | GGTAGTAC | -0.17
34 | CTCCCGCA | -0.0754
35 | GACATCAA | 0.327
36 | ACCCACCC | 0.0727
37 | AGAAAGCA | 0.259
38 | TGAAAACA | 0.241
39 | AACACAAG | 0.00354
40 | ACTTGTGA | 0.143
41 | AAGGTATG | -0.0356
42 | ATTCGAGA | -0.0189
43 | GGAAGGAA | -0.101
44 | AGTCCCTC | -0.335
45 | ACTCCGTC | 0.0602
46 | GCCCGAAC | -0.176
47 | AGCTAGCC | -0.115
48 | CCTCAACC | -0.0748
49 | CTCTCGGC | -0.196
50 | AAGTGGGA | 0.0966

Row | Sequence | PBM E-score
51 | ACCGTTGA | 0.0573
52 | CTGACCCC | -0.359
53 | ACACTTAT | 0.119
54 | ACCGTACT | 0.0481
55 | AATCCTCT | -0.189
56 | CACTTCAG | -0.131
57 | CAGGCGGC | -0.0166
58 | CATATCGA | 0.038
59 | GGTTGGGA | -0.148
60 | CTCAACAC | 0.186
61 | CGGCTTGC | 0.184
62 | AACACAGC | 0.124
63 | ATCTATAC | 0.0231
64 | CCACTCCC | -0.31
65 | CCAGCTAG | -0.0645
66 | AGAAGAAG | -0.101
67 | CTCAGGCA | -0.0578
68 | CCTGTGCC | -0.142
69 | GATAGCGA | 0.0813
70 | ATACCGCA | -0.0216
71 | CTGGTCCA | -0.0771
72 | AATACGAT | 0.182
73 | CCGATGCA | -0.064
74 | CCGGATCA | -0.0431
75 | GTTGGCGA | -0.103

Row | Sequence | PBM E-score
76 | CAGTCTCG | -0.247
77 | ATACAGGG | 0.0532
78 | CTCTACTA | 0.0358
79 | ATACGCGA | 0.0401
80 | CGCGGTCA | -0.0578
81 | ACTTACAG | 0.00545
82 | ACATCGGG | -0.173
83 | GAACCTAC | -0.106
84 | ACTTAGTA | 0.154
85 | AAGCCTGA | -0.126
86 | GTACTAGA | 0.174
87 | GCTGACAA | 0.11
88 | AAAATCCC | -0.0336
89 | CTTGCAAC | 0.063
90 | ATACAGAG | -0.0421
91 | GCCGCAAC | 0.138
92 | AGTACGTG | -0.125
93 | ATCAACGC | 0.13
94 | GGTGCCCA | -0.225
95 | CTACGTGA | 0.0384
96 | CCCAACTA | -0.0465
97 | CCCGAGAG | -0.215
98 | AATTCGCC | 0.218
99 | ATAGCTGC | 0.0845
100 | GCGGGCAA | -0.119

Row | Sequence | PBM E-score
101 | CATTCGTC | 0.148
102 | GGTTGGCA | -0.203
103 | CTAAGTCA | 0.00474
104 | GTAGATGA | 0.181
105 | TGGATCCA | -0.124
106 | GGCGAAAC | -0.129
107 | GATCCCAC | -0.0436
108 | ATTTGCGC | 0.0678
109 | AATCTTAG | 0.0938
110 | AGTGTTAT | 0.0858
111 | AAAGAGGG | -0.0976
112 | CTGCCATA | 0.00534
113 | AGCGCTAC | -0.199
114 | AGCATATC | 0.0899
115 | GCGTTTGA | -0.00718
116 | AATATTGT | 0.306
117 | AATCTAAC | 0.108
118 | TAACCATA | 0.035
119 | ACTACGTA | 0.343
120 | ACACCATA | 0.0465
121 | CCCATCTA | -0.135
122 | ATGATCCA | -0.0761
123 | AGATACTA | -0.0394
124 | AGGCCCTA | -0.28
125 | GAACAGCC | -0.215

Row | Sequence | PBM E-score
126 | ACATTCGG | -0.086
127 | CACTTGGA | -0.065
128 | AGAGTCAC | 0.0294
129 | ACTAGTAA | 0.211
130 | CAGGTAGG | -0.16
131 | AACCATAC | -0.0951
132 | TGACTACA | 0.228
133 | CAACTGCG | -0.0363
134 | CTCCCTCC | -0.317
135 | GAGCAAAA | 0.0129
136 | CACTACGC | -0.0437
137 | ATCCAGGA | -0.206
138 | GAGAAAGA | 0.00015
139 | TCTAGGAA | -0.0398
140 | CGAAAACC | 0.122
141 | AATATTAT | 0.242
142 | CGTTAACC | 0.166
143 | GACTGAAA | 0.0376
144 | AGCCATCA | 0.0745
145 | AATACTTC | 0.0495
146 | CGTAACCC | 0.172
147 | ACATCGTC | 0.163
148 | CATTGTCC | -0.0804
149 | GTCGCACA | -0.166
150 | GCGCCAAA | -0.042

Row | Sequence | PBM E-score
151 | CCTCGGAC | -0.234
152 | ACTCGACG | 0.097
153 | GCCTCCGC | -0.173
154 | GCCGTCCC | 0.0769
155 | CCGATTAA | 0.0604
156 | CATATGGG | 0.0397
157 | CAAATCAC | -0.00079
158 | AGATGCCT | -0.0431
159 | AGTAAACG | 0.0396
160 | CGATGAAA | 0.178
161 | GTAGATTA | 0.196
162 | CTAGACAC | 0.0253
163 | ATAGGCTA | -0.0243
164 | CCTAATTC | -0.107
165 | TGCAGGAA | 0.0886
166 | AAAAACCG | 0.0586
167 | AAGACGGA | 0.00374
168 | TATCTGAA | 0.0183
169 | CTCGACCC | -0.224
170 | AATTTCGA | 0.0157
171 | ATAGGAGC | -0.266
172 | GAAGAGAA | 0.0248
173 | CTCTTTGC | -0.0971
174 | AACAGTTC | 0.032
175 | GTTAACAA | -0.0128

Row | Sequence | PBM E-score
176 | CGGTGCAG | -0.287
177 | ACCTCTAC | -0.0692
178 | GGACCCCA | -0.177
179 | GAGAGGTA | -0.24
180 | CAACTTTC | 0.0894
181 | ATGTTAGA | 0.0207
182 | CTATTATA | 0.148
183 | CCACTACC | -0.177
184 | GGAGCGCC | -0.266
185 | CCTCCGAC | -0.439
186 | CCCGAGCC | -0.246
187 | CTAACACA | 0.132
188 | GCTCCTTA | -0.147
189 | TCGCCCCA | -0.018
190 | AACTACGA | 0.0875
191 | AAGCACTA | 0.0023
192 | CACTAGGA | -0.147
193 | TATTGGCA | -0.00661
194 | AGCAGGTC | -0.0387
195 | AGACTGCA | -0.281
196 | CCAGGATC | -0.258
197 | ATCACTCG | 0.2
198 | AGCTGCAG | -0.0265
199 | GTTTTAGA | 0.195
200 | CCTAAAGG | -0.0902

Row | Sequence | PBM E-score
201 | CATCTGTC | -0.0866
202 | CCAGTCCA | -0.361
203 | CCCAAATC | -0.157
204 | AACAGGAA | 0.03
205 | ATACCAGG | -0.225
206 | AGATTAAC | 0.118
207 | CCACGGGC | -0.244
208 | AGTTTGAA | 0.0915
209 | CTCTCAGC | -0.0648
210 | CCCGCTCG | -0.16
211 | ACGCAGAA | 0.134
212 | ACAATTGA | 0.146
213 | GTTTAAGA | -0.032
214 | ACCGCAGC | -0.0993
215 | ATGTAGAC | -0.0216
216 | ATAGTTAG | 0.0657
217 | TAGGATGA | 0.199
218 | GTATTGTA | 0.245
219 | CTCAAGAG | -0.284
